Substitutions are numbered along the chain they refer to.

The record followed here is patent US20190169308A1 (ALLIGATOR BIOSCIENCE, published 2019).

The labels stand for the following.
T1: cynomolgus 5T4 on transfected CHO cells (Macaca mulatta (cynomolgus), UniProt F7CT46 35-420)
T1 construct: also called cyno5T4; cy5T4
T1 sequence: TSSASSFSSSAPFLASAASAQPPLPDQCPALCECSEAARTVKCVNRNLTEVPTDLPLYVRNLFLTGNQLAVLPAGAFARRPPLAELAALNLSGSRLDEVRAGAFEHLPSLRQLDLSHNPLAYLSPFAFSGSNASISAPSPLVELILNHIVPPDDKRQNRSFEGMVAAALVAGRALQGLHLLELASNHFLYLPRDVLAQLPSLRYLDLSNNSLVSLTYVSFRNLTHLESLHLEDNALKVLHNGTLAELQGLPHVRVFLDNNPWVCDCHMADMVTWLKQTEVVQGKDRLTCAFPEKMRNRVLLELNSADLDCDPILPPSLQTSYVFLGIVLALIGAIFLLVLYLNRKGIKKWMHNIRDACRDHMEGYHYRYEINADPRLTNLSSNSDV

T2: 5T4-Fc (human, UniProt Q13641 32-355, limits assumed)
T2 construct: obtained from Peter L. Stern, University of Manchester; also called h5T4-Fc; recombinant 5T4
T2 sequence (looked up): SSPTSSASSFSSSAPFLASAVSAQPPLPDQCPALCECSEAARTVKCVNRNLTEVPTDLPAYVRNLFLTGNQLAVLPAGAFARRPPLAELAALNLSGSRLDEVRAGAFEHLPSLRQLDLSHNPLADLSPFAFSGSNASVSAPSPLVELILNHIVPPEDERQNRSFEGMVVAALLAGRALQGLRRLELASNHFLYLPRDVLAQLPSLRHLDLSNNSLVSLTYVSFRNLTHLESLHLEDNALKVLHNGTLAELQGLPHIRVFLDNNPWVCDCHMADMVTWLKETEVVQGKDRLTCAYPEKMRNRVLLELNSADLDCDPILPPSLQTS

T3: Human 5T4 (produced in-house) (human, UniProt Q13641 32-355, limits assumed)
T3 sequence (looked up): T2 sequence (looked up)

B1: 1618-1210LO3 (bispecific antibody, human IgG1, kappa)
heavy: EVQLLESGGGLVQPGGSLRLSCAASGFTFSYGSMYWVRQAPGKGLEWVSSISSGSGSTYYADSVKGRFTISRDNSKNTLYLQMNSLRAEDTAVYYCARSSYYGSYYSIDYWGQGTLVTVSS[no letters for human IgG1 constant region with changes]GGGGSGGGGSEVQLLESGGGLVQPGGSLRLSCAASGFDFDSYAMSWVRQAPGKGLEWVSAISGSGGSTYYADSVKGRFTISRDNSKNTLYLQMNSLRAEDTAVYYCARYYGGYYSAWMDYWGQGTLVTVSSGGGGSGGGGSGGGGSDIQMTQSPSSLSASVGDRVTITCRASQSIRQALNWYQQKPGKAPKLLIYAASSLHSGVPSRFSGSGSGTDFTLTISSLQPEDFATYYCQQTYGYLHTFGQGTKLEIK
light: DIQMTQSPSSLSASVGDRVTITCRASQSISSYLNWYQQKPGKAPKLLIYAASSLQSGVPSRFSGSGSGTDFTLTISSLQPEDFATYYCQQYYDNLPTFGQGTKLEIKRTVAAPSVFIFPPSDEQLKSGTASVVCLLNNFYPREAKVQWKVDNALQSGNSQESVTEQDSKDSTYSLSSTLTLSKADYEKHKVYACEVTHQGLSSPVTKSFNRGEC
B2: 1618-1210LO1 (bispecific antibody, human IgG1, kappa)
heavy: EVQLLESGGGLVQPGGSLRLSCAASGFTFSYGSMYWVRQAPGKGLEWVSSISSGSGSTYYADSVKGRFTISRDNSKNTLYLQMNSLRAEDTAVYYCARSSYYGSYYSIDYWGQGTLVTVSS[no letters for human IgG1 constant region with changes]GGGGSGGGGSEVQLLESGGGLVQPGGSLRLSCAASGFDFESYAMSWVRQAPGKGLEWVSAISGSGGSTYYADSVKGRFTISRDNSKNTLYLQMNSLRAEDTAVYYCARYYGGYYSAWMDYWGQGTLVTVSSGGGGSGGGGSGGGGSDIQMTQSPSSLSASVGDRVTITCRASQSIRSALNWYQQKPGKAPKLLIYAASSLQSGVPSRFSGSGSGTDFTLTISSLQPEDFATYYCQQTYGYLHTFGQGTKLEIK
light: B1 light
notes: Morrison format
B3: 1618-1210LO2 (bispecific antibody, human IgG1, kappa)
heavy: EVQLLESGGGLVQPGGSLRLSCAASGFTFSYGSMYWVRQAPGKGLEWVSSISSGSGSTYYADSVKGRFTISRDNSKNTLYLQMNSLRAEDTAVYYCARSSYYGSYYSIDYWGQGTLVTVSS[no letters for human IgG1 constant region with changes]GGGGSGGGGSEVQLLESGGGLVQPGGSLRLSCAASGFDFDSYAMSWVRQAPGKGLEWVSAISGRGGSTYYADSVKGRFTISRDNSKNTLYLQMNSLRAEDTAVYYCARYYGGYYSAWMDYWGQGTLVTVSSGGGGSGGGGSGGGGSDIQMTQSPSSLSASVGDRVTITCRASQSIRSALNWYQQKPGKAPKLLIYAASSLQSGVPSRFSGSGSGTDFTLTISSLQPEDFATYYCQQTYGYLHTFGQGTKLEIK
light: B1 light
B4: 1618-1210LO5 (bispecific antibody, human IgG1, kappa)
heavy: EVQLLESGGGLVQPGGSLRLSCAASGFTFSYGSMYWVRQAPGKGLEWVSSISSGSGSTYYADSVKGRFTISRDNSKNTLYLQMNSLRAEDTAVYYCARSSYYGSYYSIDYWGQGTLVTVSS[no letters for human IgG1 constant region with changes]GGGGSGGGGSEVQLLESGGGLVQPGGSLRLSCAASGFDFSSYAMSWVRQAPGKGLEWVSAISGSGGSTYYADSVKGRFTISRDNSKNTLYLQMNSLRAEDTAVYYCARYYGGYYSAWMDYWGQGTLVTVSSGGGGSGGGGSGGGGSDIQMTQSPSSLSASVGDRVTITCRASQSIRQALNWYQQKPGKAPKLLIYAADSLHSGVPSRFSGSGSGTDFTLTISSLQPEDFATYYCQQTYGYLHTFGQGTKLEIK
light: B1 light
B5: 1618-1210LO4 (bispecific antibody, human IgG1, kappa)
heavy: EVQLLESGGGLVQPGGSLRLSCAASGFTFSYGSMYWVRQAPGKGLEWVSSISSGSGSTYYADSVKGRFTISRDNSKNTLYLQMNSLRAEDTAVYYCARSSYYGSYYSIDYWGQGTLVTVSS[no letters for human IgG1 constant region with changes]GGGGSGGGGSEVQLLESGGGLVQPGGSLRLSCAASGFDFDSYAMSWVRQAPGKGLEWVSAISGSGGSTYYADSVKGRFTISRDNSKNTLYLQMNSLRAEDTAVYYCARYYGGYYSAWMDYWGQGTLVTVSSGGGGSGGGGSGGGGSDIQMTQSPSSLSASVGDRVTITCRASQSISQALNWYQQKPGKAPKLLIYAASSLHSGVPSRFSGSGSGTDFTLTISSLQPEDFATYYCQQTYGYLHTFGQGTKLEIK
light: B1 light
B6: 1202-1212 (bispecific antibody)
chain 1: EVQLLESGGGLVQPGGSLRLSCAASGFTFYGSSMSWVRQAPGKGLEWVSSIYYGSSGTYYADSVKGRFTISRDNSKNTLYLQMNSLRAEDTAVYYCARSYYGYFDYWGQGTLVTVSS[no letters for human IgG1 constant region]GGGGSGGGGSEVQLLESGGGLVQPGGSLRLSCAASGFTFSSYAMSWVRQAPGKGLEWVSYISSYGGYTSYADSVKGRFTISRDNSKNTLYLQMNSLRAEDTAVYYCARYHSGVLDYWGQGTLVTVSSGGGGSGGGGSGGGGSDIQMTQSPSSLSASVGDRVTITCRASQSISSYLNWYQQKPGKAPKLLIYAASSLQSGVPSRFSGSGSGTDFTLTISSLQPEDFATYYCQQYYYHYLLTFGQGTKLEIK
chain 2: DIQMTQSPSSLSASVGDRVTITCRASQSISSYLNWYQQKPGKAPKLLIYAASSLQSGVPSRFSGSGSGTDFTLTISSLQPEDFATYYCQQYYTVVPFTFGQGTKLEIKRTVAAPSVFIFPPSDEQLKSGTASVVCLLNNFYPREAKVQWKVDNALQSGNSQESVTEQDSKDSTYSLSSTLTLSKADYEKHKVYACEVTHQGLSSPVTKSFNRGEC
B7: 1212-1202 (bispecific antibody)
chain 1: EVQLLESGGGLVQPGGSLRLSCAASGFTFSSYAMSWVRQAPGKGLEWVSYISSYGGYTSYADSVKGRFTISRDNSKNTLYLQMNSLRAEDTAVYYCARYHSGVLDYWGQGTLVTVSS[no letters for human IgG1 constant region]GGGGSGGGGSEVQLLESGGGLVQPGGSLRLSCAASGFTFYGSSMSWVRQAPGKGLEWVSSIYYGSSGTYYADSVKGRFTISRDNSKNTLYLQMNSLRAEDTAVYYCARSYYGYFDYWGQGTLVTVSSGGGGSGGGGSGGGGSDIQMTQSPSSLSASVGDRVTITCRASQSISSYLNWYQQKPGKAPKLLIYAASSLQSGVPSRFSGSGSGTDFTLTISSLQPEDFATYYCQQYYTVVPFTFGQGTKLEIK
chain 2: B6 chain 2 with T93Y, V94H, V95Y, P96L, F97L
B8: 1204-1212 (bispecific antibody)
chain 1: EVQLLESGGGLVQPGGSLRLSCAASGFTFSSYYMGWVRQAPGKGLEWVSGIGSYYGYTGYADSVKGRFTISRDNSKNTLYLQMNSLRAEDTAVYYCARAYYDYNYYYAYFDYWGQGTLVTVSS[no letters for human IgG1 constant region]GGGGSGGGGSEVQLLESGGGLVQPGGSLRLSCAASGFTFSSYAMSWVRQAPGKGLEWVSYISSYGGYTSYADSVKGRFTISRDNSKNTLYLQMNSLRAEDTAVYYCARYHSGVLDYWGQGTLVTVSSGGGGSGGGGSGGGGSDIQMTQSPSSLSASVGDRVTITCRASQSISSYLNWYQQKPGKAPKLLIYAASSLQSGVPSRFSGSGSGTDFTLTISSLQPEDFATYYCQQYYYHYLLTFGQGTKLEIK
chain 2: B6 chain 2 with Y91S, Y92V, T93P, V94H, V95Y
B9: 1212-1214 (bispecific antibody)
chain 1: EVQLLESGGGLVQPGGSLRLSCAASGFTFSSYAMSWVRQAPGKGLEWVSYISSYGGYTSYADSVKGRFTISRDNSKNTLYLQMNSLRAEDTAVYYCARYHSGVLDYWGQGTLVTVSS[no letters for human IgG1 constant region]GGGGSGGGGSEVQLLESGGGLVQPGGSLRLSCAASGFTFSSYAMSWVRQAPGKGLEWVSSIGSGGGYTGYADSVKGRFTISRDNSKNTLYLQMNSLRAEDTAVYYCARVGHPFDYWGQGTLVTVSSGGGGSGGGGSGGGGSDIQMTQSPSSLSASVGDRVTITCRASQSISSYLNWYQQKPGKAPKLLIYAASSLQSGVPSRFSGSGSGTDFTLTISSLQPEDFATYYCQQDAYPHTFGQGTKLEIK
chain 2: B6 chain 2 with T93Y, V94H, V95Y, P96L, F97L
B10: 1212-1204 (bispecific antibody)
chain 1: EVQLLESGGGLVQPGGSLRLSCAASGFTFSSYAMSWVRQAPGKGLEWVSYISSYGGYTSYADSVKGRFTISRDNSKNTLYLQMNSLRAEDTAVYYCARYHSGVLDYWGQGTLVTVSS[no letters for human IgG1 constant region]GGGGSGGGGSEVQLLESGGGLVQPGGSLRLSCAASGFTFSSYYMGWVRQAPGKGLEWVSGIGSYYGYTGYADSVKGRFTISRDNSKNTLYLQMNSLRAEDTAVYYCARAYYDYNYYYAYFDYWGQGTLVTVSSGGGGSGGGGSGGGGSDIQMTQSPSSLSASVGDRVTITCRASQSISSYLNWYQQKPGKAPKLLIYAASSLQSGVPSRFSGSGSGTDFTLTISSLQPEDFATYYCQQSVPHYPFTFGQGTKLEIK
chain 2: B6 chain 2 with T93Y, V94H, V95Y, P96L, F97L
B11: 1200-1212 (bispecific antibody)
heavy: EVQLLESGGGLVQPGGSLRLSCAASGFTFSSYAMSWVRQAPGKGLEWVSGISGGGGGTYYADSVKGRFTISRDNSKNTLYLQMNSLRAEDTAVYYCARDVAYFDYWGQGTLVTVSS[no letters for human IgG1 constant region]GGGGSGGGGSEVQLLESGGGLVQPGGSLRLSCAASGFTFSSYAMSWVRQAPGKGLEWVSYISSYGGYTSYADSVKGRFTISRDNSKNTLYLQMNSLRAEDTAVYYCARYHSGVLDYWGQGTLVTVSSGGGGSGGGGSGGGGSDIQMTQSPSSLSASVGDRVTITCRASQSISSYLNWYQQKPGKAPKLLIYAASSLQSGVPSRFSGSGSGTDFTLTISSLQPEDFATYYCQQYYYHYLLTFGQGTKLEIK
light: DIQMTQSPSSLSASVGDRVTITCRASQSISSYLNWYQQKPGKAPKLLIYAASSLQSGVPSRFSGSGSGTDFTLTISSLQPEDFATYYCQQYYIPHTFGQGTKLEIKRTVAAPSVFIFPPSDEQLKSGTASVVCLLNNFYPREAKVQWKVDNALQSGNSQESVTEQDSKDSTYSLSSTLTLSKADYEKHKVYACEVTHQGLSSPVTKSFNRGEC
notes: Morrison format IgG-scFv

For the first experiment, the target named is T1, cynomolgus 5T4 on transfected CHO cells. The experiment can be described thus: flow cytometry on CHO-K cells transfected with cynomolgus 5T4, anti-IgG(Fc)-PE, MFI.
As for B1, the “EC50 (read off the curve)” value was about 1 nM.
Same read-out and setting: next, B2: about 1 nM; B3: about 1 nM.
On the same count and under the same terms, under B4 stands about 2 nM.
Same read-out and setting: under B5 stands about 1 nM.

A further experiment addresses T2, 5T4-Fc. Briefly: dual ELISA: coated 5T4-Fc, detection with CD137-bio.
On to B6, for which the EC50 came out at 1.67 nM.
Molecule B7 came in with an EC50 of 0.57 nM.
The same measure, in the same setting: next, B8: 1.01 nM; B9: 0.79 nM.
Take B10: the EC50 worked out at 0.27 nM.
On the same count and under the same terms, under B11 stands 1.55 nM.

A further experiment addresses T3, Human 5T4 (produced in-house). The experiment can be described thus: BLI Octet, bsAb on anti-Fab-CH1 tips, 5T4 as analyte.
For the molecule B1, the Kd is 0.349 nM, the koff is 7.4e-05 s⁻¹ and the kon was determined as 212000 M⁻¹ s⁻¹.
In turn, B2 yielded a Kd of 0.147 nM, a koff of 3.29e-05 s⁻¹ and an on-rate (kon) of 223000 M⁻¹ s⁻¹.
Consider B3, for which the Kd came to 0.27 nM, the koff came to 4.5e-05 s⁻¹ and the kon was found to be 167000 M⁻¹ s⁻¹.
The like results for B4 were, in that order, 0.467 nM, 7.65e-05 s⁻¹ and 164000 M⁻¹ s⁻¹.
In the same order, the values of B5 are 0.382 nM, 7.73e-05 s⁻¹ and 202000 M⁻¹ s⁻¹.
